For 72 sequences, binding signal (log2 normalized intensity) results are on record in article PMC10726135.

The list shows a part of the results. At the low end of the ranking the order means little. Measured with an extract: partners may take part in the binding.

The assay has as its target T1, HNF4alpha8 (COS-7 nuclear extract) (UniProt P41235-5).
T1 sequence: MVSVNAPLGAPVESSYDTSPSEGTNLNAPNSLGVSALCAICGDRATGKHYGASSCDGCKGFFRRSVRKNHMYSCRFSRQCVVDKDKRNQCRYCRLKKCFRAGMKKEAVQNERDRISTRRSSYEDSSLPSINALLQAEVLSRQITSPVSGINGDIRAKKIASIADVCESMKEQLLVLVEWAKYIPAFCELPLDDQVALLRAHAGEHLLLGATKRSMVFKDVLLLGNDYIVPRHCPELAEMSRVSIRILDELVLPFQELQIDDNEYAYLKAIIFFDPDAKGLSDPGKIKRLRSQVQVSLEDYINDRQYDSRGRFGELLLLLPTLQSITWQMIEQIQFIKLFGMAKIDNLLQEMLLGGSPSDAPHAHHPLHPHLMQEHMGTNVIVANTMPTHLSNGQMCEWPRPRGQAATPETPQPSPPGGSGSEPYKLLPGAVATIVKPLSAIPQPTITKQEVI
Kind of assay: protein-binding microarray. Particulars: COS-7 nuclear extract on double-stranded Agilent 4x180k PBM; binding buffer, salt, pH and temperature not given; high values mean tight binding; double strand, one strand shown; sequences stand for … in …GCCTAGGGAGATTAGAGTATCGGTCGA
Consider AGAAAACACAGAGATCTGATCAAAGGTCAT, for which the binding signal (log2 normalized intensity) turned out to be 6.61.
The value for TCTCTACGACTTGCTTATCTTACGCAACTG was 0.377.
Regarding GGTGAAGGGGTCACCTCGCTCCCCTCCTGT, the binding signal (log2 normalized intensity) came to 1.02.
Turning to TAGGGAAAATAGTGACCCTGTCTCTCAGTC, the binding signal (log2 normalized intensity) is 1.62.
The value for CATACTTCTTCCTGTTTGACCTTCGAACCC was 10.1.
The value for CTCACCTGGATGTTTTGATGAACTTTCAAG was 2.14.
For GCACAGTGCCTGGCATGTGATAGGCATGCA the value was 0.293.
With CTGCACAGCATAGAAAACAAGTTAGACAGT, the binding signal (log2 normalized intensity) is -1.28.
For CTAGGAGACAACTTAGAATTTCATTTTGCT the value was -1.27; for CTTACTTTTATCAGGTAAAGATATGGAACA, 1.45; for ATCTCTGTGGGAGGGAAGGAGCCTAACTTT, -1.44.
The value for GGTTTTCTTGCAAACATTACTGGCACACAG was 0.466; that for CTTCCAGAAATGCCAAGATCAGGGCTAAGA was -1.36; that for CTCTTATCTGAATGTATGGGCTATTTATGA was 1.01.
As to CTTTTTAGGAAACATTTCCATTGAAGCAGA, the binding signal (log2 normalized intensity) was -1.37.
The value for CCTAACTTGTGGCTGGGTGATCTGGGAAAC was 0.235; that for GAGGTCACAACAGAAAGCAAGAGCACAAGA was -1.31.
For TCAAATATGTCTCTCCTATTCAGGTATTTG, the binding signal (log2 normalized intensity) stood at 1.98.
For CTCCCTTGCACCAGTTTCTCAACAGACCCC the value was 2.95.
The value for AAAGGGTCTTAGTATTAACGGTGAGGGAGG was -0.902.
In the case of ACCACATTCTCACCACTAGGAAACTGACCT, the binding signal (log2 normalized intensity) amounted to 3.77.
Regarding TCATGTCACGTTGGGGGTGCTGATGTTAAC, the binding signal (log2 normalized intensity) worked out at 0.934.
For GGTCTGCAATCTAAGTCTGGCTCCTGAAAC the value was -1.39.
Consider ACACTCCTTGTTCTCAGAGATCAAAGGTGA, for which the binding signal (log2 normalized intensity) is 5.18.
Consider GCATGGAATGACTTTGGGGAAATGACCTTT, for which the binding signal (log2 normalized intensity) amounted to 7.96.
For TGGGGTATGTGCTCACTCCTGGGACAAGGA the value was -1.38; for GGGCTTCCAGGCTTGGAGCCCCTTTGGAGG, -0.84; for AGCAATAGGAAATGGGAGGGTAAATTCCTT, -0.0321.
As for GCTTGAAAAGTCTTTCTGCCAAAGTTCAGC, the binding signal (log2 normalized intensity) is 2.55.
As for TCGCAGACTTTGGACTCTGCAAGGAAGGTG, the binding signal (log2 normalized intensity) was determined as 6.04.
Regarding GAGGTTTTCATCCCAGGGCTGGGGAAACAA, the binding signal (log2 normalized intensity) was -1.26.
The value for GAGCCTGCACGCCTGTTCACATTCCAGTGT was -1.05.
The value for GAAACGGGATTTCTTTATATTATGCTAGAC was -0.119; that for TACGAAGGGTTTAAAGGGCAGAAGAAGGGA was 1.19; that for ACTGACTGCTTTATCAGTGTAGTTTGAAGC was 0.518.
As to AGGTTCCATGGTGTAATGGTTAGCACTCTG, the binding signal (log2 normalized intensity) stood at 1.1.
For CAAACATTAGCTGCAGATTCCACCTTAGAG the value was -1.29.
The value for GTATCTGACTTTATCATTGGACTCTCTCAT was 3.43.
For AGCCAGGCAGTCGGGAAATTCCAGCAGGAA the value was -1.26; for CAATATCGCAGTCATAAATACTCATTATGT, -0.0837; for TCTGTTGTGTCAAAGGTCACTTAGTCCCTA, 5.3.
With ATGTATGCATAGACTGCCCAGAATTTCCTG, the binding signal (log2 normalized intensity) is -1.31.
For GGTCTAAGGGCAAGTGACTGATAAGGCTAA the value was -1.28; for ATAACCTACTTAAAAAGAAATAGCCTGAAA, -1.36.
As for ATGGTGCTGGCGGGAGCATAGCAGCGAGGA, the binding signal (log2 normalized intensity) was -1.38.
As to CTCAAGCTCTCCTCTTATCAGGCAGGATAT, the binding signal (log2 normalized intensity) is 0.105.
For CCTAGGGGGAAGCCCCTGCTTCCGGACACA the value was -1.33.
As to TACGCAAGTGGTACCTCCCGAAAGTGACCC, the binding signal (log2 normalized intensity) worked out at 5.07.
Take GAATTAACTAAAAGTATCTAAGGGCCTAGA: the binding signal (log2 normalized intensity) is -1.3.
The value for CCACAGCGTTTTCCTCCAGCCTGTCGGAAT was -1.16; that for TTGATCCAGGATCCTTCTTGACCAGGCAAG was 0.747; that for GCTACAACTGGACTAGACAGGCTTGTCGAG was -1.37.
Turning to GGAAATGAATTGATAAACACTTGCCTACTT, the binding signal (log2 normalized intensity) was -1.26.
Regarding TCTTGTAAGGTTCTTGTATCTGATCTGTGT, the binding signal (log2 normalized intensity) turned out to be 2.18.
With CATCTCAAAGGCATTTTTTGTAGATGCCTG, the binding signal (log2 normalized intensity) was determined as 0.625.
In the case of GAAACCTAGGAGTTATCTAAGACCCATCCC, the binding signal (log2 normalized intensity) stood at 1.43.
With GGGGGTTTGCAACCTTTGATAACCTACAAC, the binding signal (log2 normalized intensity) is 1.37.
For TCAATCCTGGCCTCTGAGGTGTTAACCTGA the value was 1.11; for ATTATCAGTAACTCACTATCAGGAAACTCT, -1.07; for CAAGCAAACACACTTGCTCTAATCCTTTAA, -1.31.
For TTCGGTGTCATCTAGACCTGGACTTGAAGC the value was 2.35; for CTTCCTCATGATCGCTTCCAGGGTTACCGG, -0.0281; for CAGTGGGGGGGGGGGGGGGGGTGTGTCTGT, 0.963.
The value for TCTTCCTTTCTATCAGCTCTCCGTGGACTT was 3.52; that for CTGAGCAGGGTCCAACCCACAGGGGTAGAA was 0.648; that for TTTCCTGCCTGCCGGCTCTGAAGAGAACGG was -1.31.
In the case of CTAGCTCACTGATAAGAAAGGCTTCTGGGA, the binding signal (log2 normalized intensity) is -1.23.
For the sequence AAAAATATTGAACAAAGATTGCTTGCCAGT, the binding signal (log2 normalized intensity) is -0.819.
The value for ACTGGAAGCAAGCCCTATTAGGCATTTCAT was -1.21.
The value for GCTGCTTTAGACATGAGATAGCATTCCAAG was -1.16; that for GGGTATAACCTTCTTCTATGCCCTCTTCTG was 2.58.
Turning to GAGGTCACCCTGTGTCAGCGACTGGGCAGT, the binding signal (log2 normalized intensity) was -0.775.
